Data taken from the supplement of paper PMC11880418.
Counter-ions that a name gives are not always drawn. This is one part of the list. The data scatter; read single values as rough.

Legend:
Experiment in all cases: ALDHbr (CSC) cell proportion score relative to DMSO vehicle (ratio to DMSO); breast (SUM159) / gastric (MKN45) / pancreatic (PANC1) / colon cancer lines; ALDHbr cells have high ALDH activity and are rich in cancer stem cells (CSC); higher = more CSC (ALDHbr) cells remaining
Conditions in all cases: 10 µM; 72 h
MKN45 = test system: MKN45
PANC1 = test system: PANC1
SUM159 = test system: SUM159
T84 = test system: T84
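Further: High-content imaging of ALDEFLUOR-stained cells with Hoechst-labelled nuclei in 384-well plates, triplicate wells, scored as Z-score against 0.1% DMSO vehicle, negative meaning fewer ALDHbr cells.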

SMILES | ALDHbr (MKN45) | ALDHbr (PANC1) | ALDHbr (SUM159) | ALDHbr (T84)
N[C@@H](Cc1cc(I)c(Oc2ccc(O)c(I)c2)c(I)c1)C(=O)O [Liothyronine] | 0.859 | 0.871 | 0.661 | 0.882
COc1cc2nc(N3CCN(C(=O)C4CCCO4)CC3)nc(N)c2cc1OC (centres undefined) [Terazosin hydrochloride] | 0.966 | 0.85 | 0.972 | 0.954
CC/C(=C(\c1ccccc1)c1ccc(OCCN(C)C)cc1)c1ccccc1 [Tamoxifen citrate] | 0.665 | 0.822 | 0.46 | 0.193
CCC(C)n1ncn(-c2ccc(N3CCN(c4ccc(OCC5COC(Cn6cncn6)(c6ccc(Cl)cc6Cl)O5)cc4)CC3)cc2)c1=O (centres undefined) [Itraconazole] | 0.121 | 0.952 | 0.784 | 0.354
CN(C/C=C/C#CC(C)(C)C)Cc1cccc2ccccc12 [Terbinafine] | 0.729 | 0.947 | 0.872 | 1.08
CCCCNc1c(C(=O)OCC)c(C)nc2c1cnn2CC [Tracazolate hydrochloride] | 0.609 | 0.214 | 0.865 | 0.964
COC(=O)C1=C(C)NC(C)=C(C(=O)OC(C)C)C1c1cccc2nonc12 (centres undefined) [Isradipine] | 1.09 | 0.867 | 0.65 | 0.869
NC(=O)c1cc[n+](CC2=C(C(=O)[O-])N3C(=O)[C@@H](NC(=O)[C@@H](c4ccccc4)S(=O)(=O)O)[C@H]3SC2)cc1 [Cefsulodin sodium salt] | 1.01 | 0.908 | 0.938 | 0.774
Cc1ccnc2c1NC(=O)c1cccnc1N2C1CC1 [Nevirapine] | 1.19 | 0.99 | 0.868 | 0.921
CCc1cccc2c3c([nH]c12)C(CC)(CC(=O)O)OCC3 (centres undefined) [Etodolac] | 1.27 | 1.28 | 1.31 | 1.1
C[C@H](N[C@@H](CCc1ccccc1)C(=O)O)C(=O)N1CCC[C@H]1C(=O)O [Enalaprilat dihydrate] | 0.973 | 1.03 | 0.85 | 0.971
O=C(NCC(O)CO)c1c(I)c(C(=O)NCC(O)CO)c(I)c(N(CCO)C(=O)CO)c1I (centres undefined) [Ioversol] | 1 | 0.857 | 1.15 | 1.01
OCCOCCN1CCN(C2=Nc3ccccc3Sc3ccccc32)CC1 [Quetiapine hemifumarate] | 0.79 | 0.763 | 0.854 | 0.916
COc1ccc([C@@H]2Sc3ccccc3N(CCN(C)C)C(=O)[C@@H]2OC(C)=O)cc1 [Diltiazem hydrochloride] | 0.985 | 0.875 | 0.997 | 0.829
CN(C)CCOC1=Cc2ccccc2Sc2ccc(Cl)cc21 [Zotepine] | 0.866 | 0.969 | 0.549 | 0.638
Nc1ccc(C(=O)NCC(=O)O)cc1 [Aminohippuric acid] | 0.921 | 0.932 | 1.01 | 0.959
Cc1ccc(/C(=C\CN2CCCC2)c2ccccn2)cc1 [Triprolidine hydrochloride] | 1.15 | 0.833 | 1.02 | 0.914
C#C[C@]1(O)CC[C@H]2[C@@H]3CCC4=CCCC[C@@H]4[C@H]3CC[C@@]21C [Lynestrenol] | 0.616 | 0.934 | 1.25 | 0.924
CN1Cc2c(N)cccc2C(c2ccccc2)C1 (centres undefined) [Nomifensine maleate] | 1.01 | 0.752 | 0.766 | 0.782

SMILES | ALDHbr (MKN45) | ALDHbr (PANC1) | ALDHbr (SUM159) | ALDHbr (T84)
CCn1nc(C(=O)O)c(=O)c2cc3c(cc21)OCO3 [Cinoxacin] | 0.876 | 0.798 | 1.04 | 0.937
CCCc1cc(=O)[nH]c(=S)[nH]1 [Propylthiouracil] | 0.992 | 0.943 | 1.19 | 0.92
CC(C)c1nc(CN(C)C(=O)N[C@H](C(=O)N[C@@H](Cc2ccccc2)C[C@H](O)[C@H](Cc2ccccc2)NC(=O)OCc2cncs2)C(C)C)cs1 [Ritonavir] | 0.182 | 0.532 | 0.254 | 0.627
CC(C)(C(=O)O)c1ccc(C(O)CCCN2CCC(C(O)(c3ccccc3)c3ccccc3)CC2)cc1 (centres undefined) [Fexofenadine hydrochloride] | 1.09 | 0.934 | 0.881 | 1.06
COc1ccc(CN2CCN(C(c3ccc(F)cc3)c3ccc(F)cc3)CC2)c(OC)c1OC [Lomerizine hydrochloride] | 0.543 | 0.949 | 0.769 | 0.641
NS(=O)(=O)c1cc2c(cc1Cl)NC(CC1CCCC1)NS2(=O)=O (centres undefined) [Cyclopenthiazide] | 1.05 | 0.946 | 0.943 | 1.02
CCNC(=O)CCC/C=C\C[C@@H]1[C@@H](/C=C/[C@@H](O)CCc2ccccc2)[C@H](O)C[C@@H]1O [Bimatoprost] | 0.945 | 0.772 | 1.21 | 1.06
CCN(CC)CCOCCOC(=O)C1(c2ccccc2)CCCC1 [Carbetapentane citrate] | 0.843 | 0.91 | 1.12 | 1.04
NCC[C@H](O)C(=O)N[C@@H]1C[C@H](N)[C@@H](O[C@H]2O[C@H](CN)[C@@H](O)[C@H](O)[C@H]2O)[C@H](O)[C@H]1O[C@H]1O[C@H](CO)[C@@H](O)[C@H](N)[C@H]1O [Amikacin hydrate] | 1.07 | 1.04 | 1.15 | 1.03
CN(Cc1cc(Br)cc(Br)c1N)C1CCCCC1 [Bromhexine hydrochloride] | 0.86 | 1.03 | 1.04 | 0.88
COc1nc(N)nc2c1ncn2[C@@H]1O[C@H](CO)[C@@H](O)[C@@H]1O [Nelarabine] | 0.727 | 1.48 | 1.93 | 0.916
O=C(O)CN(CCN(CC(=O)O)CC(=O)O)CCN(CC(=O)O)CC(=O)O [Pentetic acid] | 0.755 | 0.766 | 1.05 | 1.04
CC(C)[N+](C)(CCOC(=O)C1c2ccccc2Oc2ccccc21)C(C)C [Propantheline bromide] | 0.987 | 1 | 1.12 | 1.02
CCC1=C(C)CN(C(=O)NCCc2ccc(S(=O)(=O)NC(=O)N[C@H]3CC[C@H](C)CC3)cc2)C1=O [Glimepiride] | 0.814 | 0.648 | 0.942 | 0.938
CC(C)C(=O)OCC(=O)[C@@]12O[C@H](C3CCCCC3)O[C@@H]1C[C@H]1[C@@H]3CCC4=CC(=O)C=C[C@]4(C)[C@H]3[C@@H](O)C[C@@]12C [Ciclesonide] | 0.37 | 0.852 | 0.394 | 0.466
CCN(CC)CCNC(=O)c1cc(S(C)(=O)=O)ccc1OC [Tiapride hydrochloride] | 0.951 | 0.905 | 0.953 | 0.96
O=C(CCCCC(=O)Nc1c(I)cc(I)c(C(=O)O)c1I)Nc1c(I)cc(I)c(C(=O)O)c1I [Iodipamide] | 1.02 | 0.918 | 1.09 | 0.783
Oc1ccc(C2CNCCc3c2cc(O)c(O)c3Cl)cc1 (centres undefined) [Fenoldopam] | 1.01 | 0.879 | 1.61 | 1.03
Nc1nc(N)nc(-c2cc(Cl)ccc2Cl)n1 [Irsogladine maleate] | 1.14 | 0.835 | 0.98 | 1.05

SMILES | ALDHbr (MKN45) | ALDHbr (PANC1) | ALDHbr (SUM159) | ALDHbr (T84)
CCCCC(=O)O[C@H]1CC[C@H]2[C@@H]3CCc4cc(O)ccc4[C@H]3CC[C@]12C [Estradiol Valerate] | 1.11 | 0.936 | 1.12 | 0.879
CC(CCc1ccc(O)cc1)NCCc1ccc(O)c(O)c1 (centres undefined) [Dobutamine hydrochloride] | 1.1 | 0.742 | 2.01 | 1.07
S=c1[nH]cnc2nc[nH]c12 [Mercaptopurine] | 0.452 | 0.907 | 0.898 | 0.549
CN/C(=N\CCSCc1nc[nH]c1C)NC#N [Cimetidine] | 0.867 | 0.846 | 1.06 | 0.841
NNc1nncc2ccccc12 [Hydralazine hydrochloride] | 1.39 | 1.02 | 1.32 | 0.868
CCOC(=O)c1ccc(C#Cc2ccc3c(c2)C(C)(C)CCS3)nc1 [Tazarotene] | 0.808 | 1.3 | 0.0294 | 0.553
CCCNC(C)(C)COC(=O)c1ccccc1 [Meprylcaine hydrochloride] | 1.15 | 1.03 | 1.05 | 1
Nc1nnc(-c2cccc(Cl)c2Cl)c(N)n1 [Lamotrigine] | 1.08 | 0.952 | 0.861 | 0.975
C[C@]12CC[C@@H]3c4ccc(O)cc4CC[C@H]3[C@@H]1CC[C@@H]2O [Estradiol-17 beta] | 0.833 | 0.794 | 1.09 | 1.06
CC(CNC1CCCCC1)OC(=O)c1ccccc1 (centres undefined) [Hexylcaine hydrochloride] | 1.15 | 0.859 | 0.874 | 1.06
CC(C)[C@H]1CC[C@H](C(=O)N[C@H](Cc2ccccc2)C(=O)O)CC1 [Nateglinide] | 1.02 | 1.01 | 0.776 | 1
O=c1cc(-c2ccc(O)c(O)c2)oc2cc(O)cc(O)c12 [Luteolin] | 0.704 | 0.374 | 2.51 | 0.691
CN(C)CCCN1c2ccccc2CCc2ccc(Cl)cc21 [Clomipramine hydrochloride] | 0.99 | 1.01 | 0.781 | 0.821
COCCOC(=O)C1=C(C)NC(C)=C(C(=O)OC(C)C)C1c1cccc([N+](=O)[O-])c1 (centres undefined) [Nimodipine] | 0.666 | 0.705 | 0.701 | 0.921
CCn1cc(C(=O)O)c(=O)c2cnc(N3CCNCC3)nc21 [Pipemidic acid] | 1.12 | 0.9 | 1.03 | 1.02
C#C[C@]1(O)CC[C@H]2[C@@H]3CCC4=CC(=O)CC[C@@H]4[C@H]3CC[C@@]21C [Norethindrone] | 0.584 | 0.717 | 1.02 | 1.13
C[C@@H]1C[C@H]2[C@@H]3C[C@H](F)C4=CC(=O)C=C[C@]4(C)[C@@]3(F)[C@@H](O)C[C@]2(C)[C@@]1(O)C(=O)CO [Flumethasone] | 0.959 | 0.656 | 1.24 | 0.979
C#Cc1cccc(Nc2ncnc3cc(OCCOC)c(OCCOC)cc23)c1 [Erlotinib] | 1.09 | 0.689 | 0.227 | 0.72
